The whole screen tested about 4,800 compounds, of which about 410 (8.5%) showed an effect of 50% or more. The list shows a part of the results.
test system: Plasmodium falciparum; assay: Confirmatory screen in NF54 pLDH assay, in single point, at 2uM, 72h; type: functional, Erythrocyte; conditions: timepoint 72 hour

Compound | % Inhibition
CCn1nc(-n2cnnc2)c(NC(=O)c2cc(Br)ccc2OC)c1C | 11%
CS(=O)(=O)NCCn1nc(-c2cnccn2)cc1C1CC1 | 7%
NC(=O)C(NC(=O)c1cccc(Cl)c1)C(N)=O | 85%
CC(CC1OCC(C[N+]2(Cc3ccccc3)CCCCC2)O1)CC(C)(C)C (stereo not given) | 56%
O=C(NOC1CCCCO1)NC1CCOC1c1ccc(Cl)cc1 (stereo not given) | 11%
COc1cccc(C(=O)N2CCN(c3nnc4ccc(C(F)(F)F)cn34)CC2)c1 | 10%
Nc1ncncc1C(=O)NCCc1c[nH]c2ccc(F)cc12 | 6%
CC(C)Cn1ncnc1COC(=O)c1cccnc1 | 10%
COc1cccc(C(=O)N2CCC[C@@]3(C2)Nc2cccnc2N=C3NCc2ccccc2)c1 | -10%
COc1cc2c(cc1-c1cccnc1)CCC(=O)N2C | -22%
CCc1ccc(CNC(=O)C2(N3CCOCC3)CCC2)s1 | -8%
Cc1nn(Cn2nc(-c3ccc(F)cc3)c(Br)c2-c2ccc(F)cc2)c(C)c1Cl | 6%
O=S(=O)(c1cccc(F)c1)c1cnc2c(F)cccc2c1-c1cccc(F)c1 | -3%
CC1(C)CN(C(=O)c2cn[nH]c(=O)c2)C(C)(C)CN1Cc1ccccc1 | 10%
Cc1nonc1NC(=O)CCCC1CCCC1 | 8%
CC(C)(NCc1ccncc1Cl)c1ccc2c(c1)OCO2 | -5%
CC1(C)CC(=O)C2(Cc3cc(C(F)(F)F)ccc3N3CCCC[C@H]32)C(=O)C1 | 9%
Cc1cc(C)c(C(=O)O)cc1NC(=O)c1oc(C2CC2)nc1C | -8%
O=C(Nc1nncs1)c1cccc(C(=O)Nc2nncs2)n1 | 64%
Cc1ccc2c(c1)nc(-n1nc(C)cc1C)c1nnnn12 | 6%
C[C@H]1CCCN(c2nc3ncn(CC(=O)Nc4ccccc4C(F)(F)F)c(=O)c3s2)C1 | -8%
Cc1nn(-c2nc3ccccc3[nH]2)c(O)c1CCC(C)C | 68%
Cc1cccc(NS(=O)(=O)c2ccc3c(c2)Cc2cc(S(=O)(=O)Nc4cccc(C)c4)ccc2-3)c1 | 11%
Cc1ccc(C(=O)N2C[C@@H]3C[C@H](NC(=O)c4cccnc4)[C@H]2C3)cc1F | -1%
O=C(NC1CC1C1CCCCC1)N1CCS(=O)(=O)CC1 (stereo not given) | -4%
Oc1ccc(C2=C(c3ccccc3)N=NCN2O)c(O)c1 | -12%
CCCNC(=O)O[C@@H]1CC[C@]2(C)C(CC[C@@H](O)[C@H]2CC(=O)N2CCC(C)CC2)[C@]1(C)CO (stereo not given in full) | 8%

Compound | % Inhibition
CN1C(=O)[C@@H]2CCCCN2c2ccc(C(=O)NCCN3CCN(c4ccccc4F)CC3)cc21 | 7%
COc1ccc(-n2nc(C)c3c2NC(=O)C[C@@H]3c2ccccc2OCC(C)C)nn1 | -1%
N[C@H]1C[C@@H](c2cc(N3CCN(C4CCCCC4)CC3)nc(N3CCCC3)n2)C1 | 50%
Cn1nc(C(=O)NC2CCCCC2)cc1C(=O)NC1CCCCC1 | 12%
CCOC(=O)c1ccc2[nH]cnc2c1NC(C)=O | 5%
CCc1ccc(NC(=O)c2c(C)sc3ncnc(N4CCCCC4)c23)cc1 | 12%
CC(C)[C@H](OC(=O)n1ccnc1)C(=O)OC(C)(C)C | -16%
COc1ccccc1N1CCN(CC(=O)Nc2c3c(nc4ccccc24)N(c2cccc(C)c2)CC3)CC1 | -24%
Cc1ccc(NC(=O)CC2CCOCC2)cc1F | -17%
Cc1[nH]c2ccccc2c1C1CCN(C(=O)c2ccc(Br)cc2O)CC1 | -7%
O=C(O)c1cc2c(cc1C(=O)Nc1ccc(Cl)cc1)=[O+]c1ccccc1-c1ccccc1[O+]=2 | -8%
Nc1nc(C2CC(N)C2)cc(N2CCC(Oc3ccccc3Cl)CC2)n1 (stereo not given) | 65%
Nc1cc(Cl)c(C(F)(F)F)cc1N | 10%
Oc1ccc(-c2ncc3n2CCCC3)cc1 | 11%
CC(=O)N1CCC(Nc2ccc3c(c2)CCC(=O)N3)CC1 | -7%
Fc1cnc(OC2Cc3ccccc3C2)nc1 | 57%
O=C(ON1C(=O)CCC1=O)c1cc2ccccc2[nH]1 | 9%
O=C(NCCC1=CCOCC1)c1cnc2ccccn12 | -2%
O=c1[nH]c2ccccc2c(NCc2ccccc2)c1N1CCN(c2ccccc2)CC1 | 1%
O=C(CCc1nc(-c2cccc(F)c2)no1)NCc1ccc2c(c1)OCO2 | 11%
O=C(Nc1ccc(-n2cncn2)cn1)c1cscn1 | -14%
CCNC(=O)c1nc(-c2ccncc2)cs1 | -16%
O=C(N[C@H]1CCOC1=O)OCc1ccccc1 | -4%
CN1CCN(CC2(O)CCN(S(=O)(=O)c3ccc(Cl)cc3)CC2)CC1 | -17%
O=C(Cc1c[nH]c2ccccc12)NC1(C(=O)NC2CCCC2)CCCCC1 | 8%
Cc1cc2[nH]ncc2cc1NC(=O)c1ccco1 | 9%
COc1cc(CNCc2cccs2)ccc1OCc1ccccc1C | 5%

Compound | % Inhibition
Cc1ccc(-c2nc3c(c(=O)n2CC(=O)NC[C@H]2CCCO2)CCN(Cc2ccccc2)C3)cc1 | -28%
CCNC(=O)CNC(=O)Nc1cnn(C(C)C)c1 | 7%
C[C@@H](C(=O)NCCN1CCCCC1)N1C(=O)COc2ccc(C(=O)COc3ccc(Cl)cc3)cc21 | -9%
O=C(C[C@H]1CCN(S(=O)(=O)c2ccc(F)cc2F)C1)NCc1ccccc1 | 10%
O=c1cc2c(nn1Cc1cccc(Cl)c1)-c1ccccc1CC2 | 1%
COc1ccc(CNc2nc(-c3nnc(-c4ccccc4)o3)nc3ccccc23)cc1 | -3%
CS(=O)(=O)N(CCCC(=O)NCc1ccc2c(c1)OCO2)c1ccc(F)cc1 | 11%
Cn1ncnc1CNC(=O)NCC1(Cc2ccccc2)CCC1 | -2%
O=C1C2CCCCC2C(=O)N1c1cnn(Cc2cccc3ccccc23)c1 (stereo not given) | 10%
COc1ccc(-c2cc3nc(C)cc(N4CCN(C/C=C/c5ccccc5)CC4)n3n2)cc1OC | 37%
Cc1nc(O)ccc1C(=O)N[C@H](c1ccc(Cl)cc1)c1ncon1 | -5%
CCn1nc(C)c(C(=O)Nc2cn(C)nc2C(N)=O)c1C | -14%
COc1cc(C(=O)NC2CC(C)(C)NC(C)(C)C2)ccc1OCc1ccccc1Cl | 11%
Oc1ccccc1CNc1cccc2cccnc12 | 97%
Cc1c(S(=O)(=O)NCc2cc3c(s2)CCCC3)cnn1C | 11%
Cc1nc2cc(NC(=O)c3cccs3)ccc2o1 | -5%
CCOc1cc(CNC2CCCCC2)cc(Cl)c1OCc1ccc(C)cc1 | -4%
O=c1[nH]cnc2c1nc(N1CCCCC1)n2C1OC(CO)C(O)C1O (stereo not given) | 3%
O=C(C[C@@H]1C(=O)Nc2nc(N3CCOCC3)[nH]c(=O)c21)Nc1ccc(Cl)cc1 | 4%
Cc1cc(CN(C)C[C@@H]2C[C@H]2c2ccccc2)no1 | 1%
O=C(Nc1ccc(F)cc1)c1c(O)c2cccc3c2n(c1=O)CC3 | -20%
Cc1ccccc1NC(=O)N1CCN(C(=O)c2nonc2N)CC1 | -17%
CCn1cc(Cl)c(C(=O)N2N=C3/C(=C/c4ccc(C)cc4)CCCC3C2c2ccc(C)cc2)n1 (stereo not given) | 6%
O=C(NCc1ccco1)[C@H]1CCCN(c2nc3ccccc3n(Cc3ccccc3)c2=O)C1 | 9%
O=C(CNC(=O)[C@H]1CC[C@H](CNS(=O)(=O)c2ccccc2)CC1)N1CCN(c2ccccc2)CC1 | 14%
COc1cccc(-c2cn(C)c3c(=O)n(CC(=O)Nc4ccccc4Cl)cnc23)c1 | -4%
COCCN(CC1CN(Cc2ccccc2OC)CC1c1ccccc1OC)C(=O)COC (stereo not given) | 0%

Compound | % Inhibition
CCC(C)(C)C(=O)NCC1CCN(S(=O)(=O)C(F)F)CC1 | -6%
COC(=O)[C@H](C)N(C(=O)CO)c1c(C)cccc1C | 10%
COC(=O)c1nccc(N2CCc3ccccc3C2)n1 | -5%
COc1ccc2nc(N3CN(Cc4ccccc4)CN(c4nc5ccc(OC)cc5s4)C3)sc2c1 | 1%
FC(F)(F)c1cnc(Cc2ccc(OC[C@H]3CC3(Cl)Cl)cc2)c(Cl)c1 | 11%
Cc1ccc(NC(=O)N2CC(c3nc(C(C)C)nn3C)C2)cc1F | -1%
CCNC(=O)CN(CC)C(=O)COc1ccc(Cl)c(C)c1 | 7%
CC(C)(C)NC(=O)N[C@H]1COc2c1ccc(Cl)c2Cl | -3%
Cc1cc(C)c(N2CCC(NC(=O)C(C)n3cncn3)C2=O)c(C)c1 (stereo not given) | 12%
O=S(=O)(c1ccccc1)N1CCC(Nc2ccc(Br)cc2)CC1 | 12%
Cc1cnn(CC(=O)NC[C@]2(N3CCOCC3)CCOC2)c1 | -9%
Cn1nccc1CS(=O)(=O)c1ccc(F)c(F)c1 | -5%
CC(C)(NC(=O)CC1CCC(F)(F)CC1)c1nc2ccccc2s1 | 8%
Cc1ccc(C)c(NC(=O)CC(=O)O)c1 | -8%
C1=CCC(c2nc(-c3cnccn3)no2)C1 | -2%
Cc1cc(C(=O)NCc2cnn(C)c2C)nc(N2CCOCC2)n1 | 10%
CCC(=O)N1CCc2sc(C(=O)NC3CCN(Cc4ccccc4)CC3)cc2C1 | 3%
Cc1ccc(F)cc1NC(=O)N1CCC12CCC2 | 11%
CCN1c2cc(C(=O)NCc3ccccc3)ccc2C(=O)N2CCCC[C@H]21 | 7%
Cc1nnc(NS(=O)(=O)c2c(C)sc3ccccc23)s1 | 7%
Nc1c(Cl)cc(Cl)c(N)c1Cl | -20%
FCCn1ncnc1CN1CCCCC[C@H]1C1CCCCC1 | -6%
Cc1ccc(NC(=O)c2ccc3c(-c4ccccc4)onc3c2)cc1C | -11%
Cc1cc(C)n(S(=O)(=O)c2ccc3c(c2)OCCO3)n1 | 7%
